Measured values published in PubChem BioAssay AID652104 (National Center for Advancing Translational Sciences (NCATS), 2013).
About 7,200 (1.8%) of roughly 410,000 compounds were called active. The inconclusive results got no clear call from the source; some entries with a clear call stand among them for comparison. Calls come from the whole dose curve; as a rule, active = well fitted activation curve with a large enough effect; inconclusive = small, poorly fitted or top-dose-only effect, or another doubt; inactive = no such curve, though single readings can be large or run the other way. No potency is given beside an inconclusive call; the fits are too rough.

Test: qHTS of TDP-43 Inhibitors; note: nearly all actives have a fitted effect of over 50% in size; for growth rescue (activation): % of control where 0% means no effect
Details: TDP-43 expressing yeast growth rescue, BacTiter-Glo, 24 h; growth rescue (activation): at 46.1 µM (top of the series) unless noted
Summary of the method: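 Galactose-induced TDP-43 yeast, OD600=0.02, compound pinned; 24 hr, 30 deg C; BacTiter-Glo luminescence for growth. Inhibitors of TDP-43 toxicity read as activators.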
Potency is the fitted concentration of half-maximal effect; tags give direction and shape of the fitted curve.

SMILES | Potency | growth rescue (activation)
Cc1ccc(C(=O)Nc2ccc(OCc3ccccc3)cc2)cc1[N+](=O)[O-] | inactive | 
O=C(c1cc(-c2ccc(Cl)cc2)on1)N1CCc2ccccc2C1 | inconclusive [activator, single point] | 
O=C(Cn1ccsc1=NC(=O)C(F)(F)F)c1ccccc1 | inconclusive [activator, partial curve] | 
NNC(=O)c1ccc(Oc2cc(Cl)cc(Cl)c2)o1 | inconclusive [activator, partial curve] | 
COc1cc2c(C#N)c(N3CCCCC3)nc(N)c2c(N)n1 | inconclusive [activator, single point] | 
CCN(Cc1ccccc1)C(=O)c1[nH]c2ccc(OC)cc2c1C |  | inconclusive: 42.6% [activator]
COc1ccc(OC)c(NC(=O)C(C)n2nc(C)c3c(C)n(-c4ccccc4)nc3c2=O)c1 (stereo unspecified) | inactive | 
Cn1nc(C(=O)Nc2cc(Cl)ccc2N2CCCC2)c2ccccc2c1=O | inactive | 
Cc1cc(C(=O)OCC(=O)NC2CCC(C)CC2)c(C)o1 (stereo unspecified) | inactive | 
COc1ccc(CCN=c2c([N+](=O)[O-])nn(-c3cccc(C)c3)n2O)cc1OC | active: 17.8 µM | 
O=C(CNC(=O)c1ccco1)OCC(=O)c1ccc2c(c1)CCCC2 | inconclusive [activator, single point] | 
Cc1nnc(SCC(=O)N2c3ccccc3C(C)(c3ccccc3)CC2(C)C)s1 (stereo unspecified) | inconclusive [activator, partial curve] | 
CN(c1cccc(F)c1)c1cc2c(c3c1ccn3C)C1CCC2C1 (stereo unspecified) | inactive | 
CC(=O)C(/C=N/c1cc(-c2ccc(C)cc2)nn1-c1ccccc1)=C(\C)O | inconclusive [activator, full curve, poor fit] | 
CCOC(=O)CN1CC23C=CC(O2)C(C(=O)Nc2cc(OC)ccc2OC)C3C1=O (stereo unspecified) | inconclusive [activator, partial curve] | 
COCc1nnc(NS(=O)(=O)c2c(C)cc(C)cc2C)s1 | inconclusive [activator, partial curve] | 
Cc1ccc(CSc2ccc3nnc(-c4ccccn4)n3n2)cc1 | active: 20 µM | 
COc1ccccc1NC(=O)Cn1cc(C(=O)c2ccncc2)c(=O)c2cc(C)ccc21 | inactive | 
Cc1cc(=O)[nH]c2nnc(SCC(=O)Nc3ccc(F)cc3F)n12 | inconclusive [activator, full curve, poor fit] | 
COc1ccc(CCNS(=O)(=O)c2ccc(Br)cc2)cc1 | inconclusive [activator, single point] | 
CC(=O)c1ccc(Sc2ccc(C(C)=O)cc2)cc1 | inconclusive [activator, single point] | 
COc1ccccc1CNC(=O)c1ccc2c(c1)nnn2C1CCCC1 | inconclusive [activator, single point] | 
C/C(=N/NC(=O)CNC(=O)Cc1ccccc1)c1ccco1 | inconclusive [activator, partial curve] | 
COc1ccc(N2CCN(C(=O)c3ccc(SC)cc3OC)CC2)cc1 | inactive | 
Cc1sc(NC(=O)C2CCCC2)c(C#N)c1C | inconclusive [activator, partial curve, poor fit] | 
CCc1ccc(CNC(=O)c2nn(-c3ccc(OC)c(Cl)c3)c(=O)c3c2c2ccccc2n3C)cc1 | inactive | 

SMILES | Potency | growth rescue (activation)
Cc1nc2ccccc2n1Cc1n[nH]c(=S)n1-c1ccc(Cl)cc1 |  | inactive: -7.4% [at 0.397 µM]
O=C(NCC(c1ccco1)N1CCc2ccccc21)C(=O)Nc1ccc(F)cc1F (stereo unspecified) | inconclusive [activator, partial curve] | 
COc1ccccc1C(=O)N1c2ccccc2C(C)(c2ccc(Cl)cc2)CC1(C)C (stereo unspecified) | inactive | 
CCOC(=O)c1nnn2c1nc(N(CC)CC)c1ccccc12 | inconclusive [activator, single point] | 
COC(=O)C1=C(C)NC(C)=C([N+](=O)[O-])C1c1ccccc1C(F)(F)F (stereo unspecified) | inactive | 
Oc1c(Cl)cc(Cl)c2c1NCCC2 |  | inconclusive: -83.1% [activator]
CCC(=O)Nc1sc2c(c1C(=O)OC)CCN(Cc1ccccc1)C2 | inactive | 
Cc1cccc(N(C)C(=O)c2cc(S(=O)(=O)N3CCCCC3)c[nH]2)c1 | inconclusive [activator, partial curve] | 
O=c1oc(CCCO)cc2ccc(Br)cc12 | inconclusive [activator, partial curve, poor fit] | 
O=C(Nc1ccc(S(=O)(=O)N2CCCCC2c2cccnc2)cc1)c1ccc(F)cc1 (stereo unspecified) | inactive | 
O=C(Nc1ccc(Nc2ccccc2)cc1)C(Cl)(Cl)Cl | active: 35.5 µM | 
CCN1C(=O)[C@H]2[C@@H](c3ccc(-c4cccc(Cl)c4)cc3)N[C@@](C)(C(=O)OC)[C@H]2C1=O | inactive | 
COc1ccc(C(=O)Nc2c3c(nn2-c2ccc(Cl)cc2)CS(=O)(=O)C3)cc1 | inactive | 
CCn1ncc(Br)c1C(=O)Nc1ccc(F)c([N+](=O)[O-])c1 | inconclusive [activator, single point] | 
CCNC1=C(Cl)C(=O)c2ccccc2C1=O | active: 12.6 µM | 
O=C(NCc1cccs1)c1nn(-c2ccccc2F)nc1CO | inactive | 
COC(=O)c1ccc(CSc2ccc3nnc(-c4cccc(F)c4)n3n2)o1 | inconclusive [activator, single point] | 
CCn1c(C)cc(C(=O)CSc2nnc(C3CC3)n2C2CC2)c1C | inactive | 
COc1ccccc1-c1cc2nc(C)c(CCC(=O)Nc3ccc(Br)c(C)c3)c(C)n2n1 | inconclusive [activator, full curve] | 
CCn1cc(C(=O)N2CCN(c3cccc(C(F)(F)F)c3)CC2)c2cc(OC)c(OC)cc2c1=O | inactive | 
COC(=O)c1ccc(NC(=O)N2CCCC(C(=O)c3ccccc3OC)C2)cc1 (stereo unspecified) | inconclusive [activator, partial curve] | 
O=C(Oc1ccc(Br)cc1C(=S)N1CCOCC1)c1ccc(F)cc1 |  | inconclusive: -53% [activator]
O=C(COC(=O)Cc1ccc(Cl)cc1Cl)Nc1ccccc1OC(F)F | active: 20 µM | 
Cc1cc(C)cc(NC(=O)CCS(=O)(=O)c2cc3c4c(c2)CCN4C(=O)CC3)c1 | inconclusive [activator, partial curve, poor fit] | 
c1ccc(CSc2nnc(-c3cccs3)n2Cc2ccco2)cc1 | active: 17.8 µM | 
CCc1ccc(OC(C)C(=O)N2CCC(c3nc4ccccc4s3)CC2)cc1 (stereo unspecified) | active: 15.8 µM | 

SMILES | Potency | growth rescue (activation)
COc1ccc(Cl)cc1NC(=O)CCS(=O)(=O)c1nc(-c2cccs2)cc(C(F)(F)F)n1 | inconclusive [activator, partial curve] | 
c1ccc2c(c1)ccc1[nH]c3c(c12)CCCC3 |  | inconclusive: -75.9% [activator]
CCCCOC(=O)Nc1ccc(OC)cc1S(=O)(=O)N1CCOCC1 | inactive | 
CCC(=O)c1ccc(N2CCN(C(=O)c3ccccc3F)CC2)c(F)c1 | inconclusive [activator, single point] | 
COC(=O)[C@]12CCCCC=C1N(Cc1ccc(Cl)cc1Cl)C(=O)[C@H](CC(=O)NCc1ccccc1)C2 | inconclusive [activator, partial curve] | 
O=C(CNS(=O)(=O)c1ccccc1)NNC(=O)C(Cl)Cl | inactive | 
Cc1c(Cl)cccc1NC(=O)COC(=O)Cc1ccsc1 | inconclusive [activator, partial curve] | 
CC(C)CN(CCCNC(=O)Cn1ncc2c3ccccc3n(C)c2c1=O)CC(C)C | inconclusive [activator, partial curve] | 
CCc1nc2ccc(C(=O)N3CCN(c4ccccc4)CC3)cc2nc1CC | inconclusive [activator, single point] | 
COc1ccc2c(c1)CCc1c(C(=O)Nc3ccc(F)c(Cl)c3)noc1-2 | inactive | 
COc1ccc(/C=C(/C(=O)c2ccc(Cl)cc2Cl)n2cncn2)cc1 | inconclusive [activator, single point] | 
O=C(/C=C/c1ccco1)NCC1(c2ccccc2)CCCC1 | inactive | 
CC(C)c1ccc(/C=C/c2ccc(=O)n(C)n2)cc1 | inconclusive [activator, partial curve] | 
CC(C)CCN1C(=O)c2ccc(C(=O)NCc3ccccn3)cc2C1=O | inactive | 
CCN(CC)c1ccc(/C=N/NC(=S)NCc2ccccc2)cc1 | inactive | 
COc1ccc(NC(=O)CSc2nc3ccccc3nc2N2CCCC2)cc1 | inconclusive [activator, partial curve] | 
O=C(Nc1ccc(Oc2ccccc2)cc1)C1CC1 | active: 5.62 µM | 
CC(=O)Nc1cc(C(=O)NCc2ccco2)ccc1Sc1ccc(F)cc1 | inactive | 
CCOc1ccc(CNS(=O)(=O)c2c(C(=O)N3CCC(C)CC3)c(C)n(C)c2C)cc1OC | inactive | 
O=C(NNC(=S)Nc1cccc(C(F)(F)F)c1)c1cccc(Cl)c1 | active: 8.91 µM | 
COC(=O)C(=C/C(C)=C/c1cccs1)C(=O)OC | inconclusive [activator, single point] | 
CCOC(=O)c1c[nH]c(=S)n1C | inactive | 
CCN(CC)CCCN(Cc1cc2cc3c(cc2[nH]c1=O)OCO3)C(=O)Nc1ccccc1OC | inactive | 
Cn1cccc1C(=O)OCc1cc(-c2ccco2)on1 | inconclusive [activator, partial curve] | 
